Results taken from US9474790B2, “Stable, protracted GLP-1/glucagon receptor co-agonists for medical use” (Novo Nordisk A/S, priority 2013, dated 2016).
At least one compound was matched to its structure with a doubt left. Numbered stars: 1 amine (or outer) side, 2 acyl side, 3 side chain; on linkers, the order of the positions; unused ones are H or OH. Square brackets hold non-standard residues; d marks the D form. Side chains are listed from the residue outwards. Peptide text beside a SMILES is read from it. * marks the point of attachment. C18 diacid = O=C(O)CCCCCCCCCCCCCCCCC(=O)*; γGlu = O=C(O)[C@H](CCC(=O)[*:2])N[*:1]; AEEA = NCCOCCOCC(=O)O; Aib = CC(C)(N)C(=O)O

assay: Thioflavin T (ThT) fibrillation assay for physical stability; format: physicochemical; details: 250 μM in 10 mM HEPES buffer, pH 7.5, 37° C., shaking 960 rpm
From the text: The purpose of this assay was to assess the physical stability of the glucagon derivatives of the invention in aqueous solutions.
Low physical stability of a peptide may lead to amyloid fibril formation, which is observed as well-ordered, thread-like macromolecular structures in the sample, which eventually may lead to gel formation. This has traditionally been measured by visual inspection of the sample. However, that kind of measurement is very subjective and depending on the observer. Therefore, the application of a small molecule indicator probe is much more advantageous. Thioflavin T (ThT) is such a probe and has a distinct fluorescence signature when binding to fibrils [Naiki et al; Anal. Biochem. 1989 177 244-249; LeVine; Methods. Enzymol. 1999 309 274-284].
The time course for fibril formation can be described by a sigmoidal curve with the following expression [Nielsen et al; Biochemistry 2001 40 6036-6046]:
Here, as depicted in FIG. 1, F is the ThT fluorescence at the time t. The constant t0 is the time needed to reach 50% of maximum fluorescence. The two important parameters describing fibril formation are the lag-time calculated by t0−2τ and the apparent rate constant kapp 1/τ.
Samples were prepared freshly before each assay. Each sample composition is described in the legends. The pH of the sample was adjusted to the desired value using appropriate amounts of concentrated NaOH and HCl. Thioflavin T was added to the samples from a stock solution in H2O to a final concentration of 1 μM.
Sample aliquots of 200 μl (250 μM of the glucagon derivative/analogue in 10 mM HEPES buffer, pH 7.5) were placed in a 96 well microtiter plate (Packard OptiPlate™-96, white polystyrene). Usually, four or eight replica of each sample (corresponding to one test condition) were placed in one column of wells. The plate was sealed with Scotch Pad (Qiagen).
Incubation at given temperature, shaking and measurement of the ThT fluorescence emission were done in a Fluoroskan Ascent FL fluorescence plate reader (Thermo Labsystems). The temperature was set to 37° C. and the plate was incubated with orbital shaking adjusted to 960 rpm with an amplitude of 1 mm. Fluorescence measurement was done using excitation through a 444 nm filter and measurement of emission through a 485 nm filter.
Each run was initiated by incubating the plate at the assay temperature for 10 min. The plate was measured every 20 minutes for a desired period of time. Between each measurement, the plate was shaken and heated as described.
After completion of the ThT assay the four or eight replica of each sample was pooled and centrifuged at 20000 rpm for 30 minutes at 18° C. The supernatant was filtered through a 0.22 μm filter and an aliquot was transferred to a HPLC vial.
The concentration of peptide in the initial sample and in the filtered supernatant was determined by reverse phase HPLC using an appropriate standard as reference. The percentage fraction the concentration of the filtered sample constituted of the initial sample concentration was reported as the recovery.
The measurement points were saved in Microsoft Excel format for further processing and curve drawing and fitting was performed using GraphPad Prism. The background emission from ThT in the absence of fibrils was negligible. The data points were typically a mean of four or eight samples.
The data set may be fitted to Eq. (1).

Row | SMILES | THT assay Lag time (Ex. 76) [h]
1 | CC(C)C[C@H](NC(=O)[C@H](Cc1ccc(O)cc1)NC(=O)[C@H](CCCCN)NC(=O)[C@H](CO)NC(=O)[C@H](CC(C)C)NC(=O)[C@H](CC(=O)O)NC(=O)[C@H](CO)NC(=O)[C@@H](NC(=O)[C@H](Cc1ccccc1)NC(=O)[C@@H](NC(=O)CNC(=O)[C@H](CCC(N)=O)NC(=O)C(C)(C)NC(=O)[C@@H](N)Cc1c[nH]cn1)[C@@H](C)O)[C@@H](C)O)C(=O)N[C@@H](CC(=O)O)C(=O)N[C@@H](CO)C(=O)N[C@@H](CCCNC(=N)N)C(=O)N[C@@H](CCCNC(=N)N)C(=O)N[C@@H](C)C(=O)N[C@@H](CCCNC(=N)N)C(=O)N[C@@H](CC(=O)O)C(=O)N[C@@H](Cc1ccccc1)C(=O)N[C@H](C(=O)N[C@@H](CCC(N)=O)C(=O)N[C@@H](Cc1c[nH]c2ccccc12)C(=O)N[C@@H](CC(C)C)C(=O)N[C@@H](CC(C)C)C(=O)N[C@@H](CO)C(=O)N[C@H](C(=O)N[C@@H](CCCCNC(=O)CC[C@H](NC(=O)CC[C@H](NC(=O)COCCOCCNC(=O)COCCOCCNC(=O)CC[C@H](NC(=O)CCCCCCCCCCCCCCCCC(=O)O)C(=O)O)C(=O)O)C(=O)O)C(N)=O)[C@@H](C)O)C(C)C [Example 6, N^α-([Aib2,Leu10,Arg20,Leu27,Ser28]-Glucagonyl)-N{Epsilon}[(4S)-4-carboxy-4-[[(4S)-4-carboxy-4-[[2-[2-[2-[[2-[2-[2-[[(4S)-4-carboxy-4-(17-carboxyheptadecanoylamino)butanoyl]amino]ethoxy]ethoxy]acetyl]amino]ethoxy]ethoxy]acetyl]amino]butanoyl]amino]butanoyl]Lys amide] (H-H[Aib]QGTFTSDLSKYLDSRRARDFVQWLLSTK([γGlu-γGlu-AEEA-AEEA-γGlu-C18 diacid])-NH2) | 45
2 | CC(C)C[C@H](NC(=O)[C@H](Cc1ccc(O)cc1)NC(=O)[C@H](CCCNC(=N)N)NC(=O)[C@H](CO)NC(=O)[C@H](CC(C)C)NC(=O)[C@H](CC(=O)O)NC(=O)[C@H](CO)NC(=O)[C@@H](NC(=O)[C@H](Cc1ccccc1)NC(=O)[C@@H](NC(=O)CNC(=O)[C@H](CCC(N)=O)NC(=O)C(C)(C)NC(=O)[C@@H](N)Cc1c[nH]cn1)[C@@H](C)O)[C@@H](C)O)C(=O)N[C@@H](CC(=O)O)C(=O)N[C@@H](C)C(=O)N[C@@H](CCCNC(=N)N)C(=O)N[C@@H](CCCNC(=N)N)C(=O)N[C@@H](C)C(=O)N[C@@H](CCC(N)=O)C(=O)N[C@@H](CC(=O)O)C(=O)N[C@@H](Cc1ccccc1)C(=O)N[C@H](C(=O)N[C@@H](CCC(N)=O)C(=O)N[C@@H](Cc1c[nH]c2ccccc12)C(=O)N[C@@H](CC(C)C)C(=O)N[C@@H](CC(C)C)C(=O)N[C@@H](CCCCNC(=O)COCCOCCNC(=O)COCCOCCNC(=O)CC[C@H](NC(=O)CC[C@H](NC(=O)CC[C@H](NC(=O)CCCCCCCCCCCCCCCCC(=O)O)C(=O)O)C(=O)O)C(=O)O)C(=O)N[C@H](C(N)=O)[C@@H](C)O)C(C)C [Example 64, N^ε28-[2-[2-[2-[[2-[2-[2-[[(4S)-4-carboxy-4-[[(4S)-4-carboxy-4-[[(4S)-4-carboxy-4-(17-carboxyheptadecanoylamino)butanoyl]amino]butanoyl]amino]butanoyl]amino]ethoxy]ethoxy]acetyl]amino]ethoxy]ethoxy]acetyl]-[Aib2,Leu10,Arg12,Ala16,Leu27,Lys28]-Glucagon amide] (H-H[Aib]QGTFTSDLSRYLDARRAQDFVQWLLK([AEEA-AEEA-γGlu-γGlu-γGlu-C18 diacid])T-NH2; N-terminus assumed) | 19
3 | CC(C)C[C@H](NC(=O)[C@H](CC(=O)O)NC(=O)[C@H](CC(C)C)NC(=O)[C@H](Cc1ccc(O)cc1)NC(=O)[C@H](CCCCN)NC(=O)[C@H](CO)NC(=O)[C@@H](NC(=O)[C@H](CC(=O)O)NC(=O)[C@H](CO)NC(=O)[C@@H](NC(=O)[C@H](Cc1ccccc1)NC(=O)[C@@H](NC(=O)CNC(=O)[C@H](CCC(N)=O)NC(=O)C(C)(C)NC(=O)[C@@H](N)Cc1c[nH]cn1)[C@@H](C)O)[C@@H](C)O)C(C)C)C(=O)N[C@@H](CCCNC(=N)N)C(=O)N[C@@H](CCCNC(=N)N)C(=O)N[C@@H](C)C(=O)N[C@@H](CCC(N)=O)C(=O)N[C@@H](CC(=O)O)C(=O)N[C@@H](Cc1ccccc1)C(=O)N[C@H](C(=O)N[C@@H](CCC(N)=O)C(=O)N[C@@H](Cc1c[nH]c2ccccc12)C(=O)N[C@@H](CC(C)C)C(=O)N[C@@H](CC(C)C)C(=O)N[C@@H](CCCCNC(=O)COCCOCCNC(=O)COCCOCCNC(=O)CC[C@H](NC(=O)CC[C@H](NC(=O)CC[C@H](NC(=O)CCCCCCCCCCCCCCCCC(=O)O)C(=O)O)C(=O)O)C(=O)O)C(=O)N[C@H](C(N)=O)[C@@H](C)O)C(C)C [Example 71, N^ε28-[2-[2-[2-[[2-[2-[2-[[(4S)-4-carboxy-4-[[(4S)-4-carboxy-4-[[(4S)-4-carboxy-4-(17-carboxyheptadecanoylamino)butanoyl]amino]butanoyl]amino]butanoyl]amino]ethoxy]ethoxy]acetyl]amino]ethoxy]ethoxy]acetyl]-[Aib2,Val10,Leu16,Leu27,Lys28]-Glucagon amide] (H-H[Aib]QGTFTSDVSKYLDLRRAQDFVQWLLK([AEEA-AEEA-γGlu-γGlu-γGlu-C18 diacid])T-NH2) | 45
4 | CC(C)C[C@H](NC(=O)[C@H](Cc1ccc(O)cc1)NC(=O)[C@H](CCCNC(=N)N)NC(=O)[C@H](CO)NC(=O)[C@@H](NC(=O)[C@H](CC(=O)O)NC(=O)[C@H](CO)NC(=O)[C@@H](NC(=O)[C@H](Cc1ccccc1)NC(=O)[C@@H](NC(=O)CNC(=O)[C@H](CCC(N)=O)NC(=O)C(C)(C)NC(=O)[C@@H](N)Cc1c[nH]cn1)[C@@H](C)O)[C@@H](C)O)C(C)C)C(=O)N[C@@H](CC(=O)O)C(=O)N[C@@H](C)C(=O)N[C@@H](CCCNC(=N)N)C(=O)N[C@@H](CCCNC(=N)N)C(=O)N[C@@H](C)C(=O)N[C@@H](CCC(N)=O)C(=O)N[C@@H](CC(=O)O)C(=O)N[C@@H](Cc1ccccc1)C(=O)N[C@H](C(=O)N[C@@H](CCC(N)=O)C(=O)N[C@@H](Cc1c[nH]c2ccccc12)C(=O)N[C@@H](CC(C)C)C(=O)N[C@@H](CC(C)C)C(=O)N[C@@H](CCCCNC(=O)COCCOCCNC(=O)COCCOCCNC(=O)CC[C@H](NC(=O)CC[C@H](NC(=O)CC[C@H](NC(=O)CCCCCCCCCCCCCCCCC(=O)O)C(=O)O)C(=O)O)C(=O)O)C(=O)N[C@H](C(N)=O)[C@@H](C)O)C(C)C [Example 72, N^ε28-[2-[2-[2-[(2-[2-[2-[[(4S)-4-carboxy-4-[[(4S)-4-carboxy-4-[[(4S)-4-carboxy-4-(17-carboxyheptadecanoylamino)butanoyl]amino]butanoyl]amino]butanoyl]amino]ethoxy]ethoxy]acetyl]amino]ethoxy]ethoxy]acetyl]-[Aib2,Val10,Arg12,Ala16,Leu27,Lys28]-Glucagon amide] (H-H[Aib]QGTFTSDVSRYLDARRAQDFVQWLLK([AEEA-AEEA-γGlu-γGlu-γGlu-C18 diacid])T-NH2) | 31
5 | CC(C)C[C@H](NC(=O)[C@H](CC(=O)O)NC(=O)[C@H](CC(C)C)NC(=O)[C@H](Cc1ccc(O)cc1)NC(=O)[C@H](CCCNC(=N)N)NC(=O)[C@H](CO)NC(=O)[C@@H](NC(=O)[C@H](CC(=O)O)NC(=O)[C@H](CO)NC(=O)[C@@H](NC(=O)[C@H](Cc1ccccc1)NC(=O)[C@@H](NC(=O)CNC(=O)[C@H](CCC(N)=O)NC(=O)C(C)(C)NC(=O)[C@@H](N)Cc1c[nH]cn1)[C@@H](C)O)[C@@H](C)O)C(C)C)C(=O)N[C@@H](CCCNC(=N)N)C(=O)N[C@@H](CCCNC(=N)N)C(=O)N[C@@H](C)C(=O)N[C@@H](CCC(N)=O)C(=O)N[C@@H](CC(=O)O)C(=O)N[C@@H](Cc1ccccc1)C(=O)N[C@H](C(=O)N[C@@H](CCC(N)=O)C(=O)N[C@@H](Cc1c[nH]c2ccccc12)C(=O)N[C@@H](CC(C)C)C(=O)N[C@@H](CC(C)C)C(=O)N[C@@H](CCCCNC(=O)COCCOCCNC(=O)COCCOCCNC(=O)CC[C@H](NC(=O)CC[C@H](NC(=O)CC[C@H](NC(=O)CCCCCCCCCCCCCCCCC(=O)O)C(=O)O)C(=O)O)C(=O)O)C(=O)N[C@H](C(N)=O)[C@@H](C)O)C(C)C [Example 73, N^ε28-[2-[2-[2-[[2-[2-[2-[[(4S)-4-carboxy-4-[[(4S)-4-carboxy-4-[[(4S)-4-carboxy-4-(17-carboxyheptadecanoylamino)butanoyl]amino]butanoyl]amino]butanoyl]amino]ethoxy]ethoxy]acetyl]amino]ethoxy]ethoxy]acetyl]-[Aib2,Val10,Arg12,Leu16,Leu27,Lys28]-Glucagon amide] (H-H[Aib]QGTFTSDVSRYLDLRRAQDFVQWLLK([AEEA-AEEA-γGlu-γGlu-γGlu-C18 diacid])T-NH2) | 22
